# Among all 110,000 compounds or so, about 230 (0.21%) showed an effect of 50% or more. This is one part of the list.
# Target: DPAP1 (Plasmodium falciparum, UniProt Q8IIJ9)
# Assay: primary screen, percent inhibition; read by cleavage of a fluorogenic dipeptide substrate; higher = more effect of the substance
# Set-up: species or system P. falciparum D10 trophozoite lysates; single well
# 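Further: 30 min substrate incubation versus DMSO and 10 µM JCP410 controls.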
# Chain of DPAP1 (Q8IIJ9 whole entry, looked up): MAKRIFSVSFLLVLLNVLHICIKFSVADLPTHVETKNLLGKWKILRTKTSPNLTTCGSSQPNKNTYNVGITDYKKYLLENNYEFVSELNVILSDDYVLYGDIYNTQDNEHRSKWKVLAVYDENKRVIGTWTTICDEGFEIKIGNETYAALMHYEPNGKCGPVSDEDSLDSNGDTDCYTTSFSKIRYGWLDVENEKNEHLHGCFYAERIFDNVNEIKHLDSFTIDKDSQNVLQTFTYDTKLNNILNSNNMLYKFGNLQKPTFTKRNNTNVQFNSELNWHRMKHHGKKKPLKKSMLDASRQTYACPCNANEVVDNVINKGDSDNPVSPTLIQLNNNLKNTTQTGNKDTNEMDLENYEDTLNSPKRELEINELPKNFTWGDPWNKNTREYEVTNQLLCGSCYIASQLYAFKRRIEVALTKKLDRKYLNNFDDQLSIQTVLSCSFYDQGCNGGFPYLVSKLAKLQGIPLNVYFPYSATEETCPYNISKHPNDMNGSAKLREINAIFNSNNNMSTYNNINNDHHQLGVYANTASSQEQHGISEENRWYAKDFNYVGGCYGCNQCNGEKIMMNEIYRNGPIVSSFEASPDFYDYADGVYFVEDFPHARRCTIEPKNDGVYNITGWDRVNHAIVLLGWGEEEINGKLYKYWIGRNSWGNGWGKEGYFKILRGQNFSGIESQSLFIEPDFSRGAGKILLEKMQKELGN
row,Structure (SMILES),% Inhibition @ 10 uM [%]
1,CCOc1ccc(-c2[nH]nc3c2C(c2sccc2C)C(C#N)=C(N)O3)cc1 (stereo not drawn),-0.968
2,C=CCOc1ccc(CNc2ccccc2Cl)cc1OC,1.19
3,COc1ccc(C2NCCC3(O)CCCCC23)c(OC)c1C (stereo not drawn),3.15
4,COc1ccccc1-n1c(O)cc(=O)[nH]c1=S,-1.62
5,CC(C)CNC(=O)CN(c1cccc2ccccc12)S(C)(=O)=O,0.793
6,Cc1ccc(N(C)C(=O)N2CCN(S(=O)(=O)c3ccc(C)c(C)c3)CC2)cc1,-3.18
7,CCN(CC)C(=O)c1ccc(/C=C/c2c[nH]c3ccccc23)[n+](C)c1,-0.0959
8,CCCCOc1ccc(NS(=O)(=O)c2c(C)nc(O)nc2O)cc1,5.03
9,Clc1ccc(NCn2nnc3ccccc32)nc1,2.09
10,Cc1cccc(NC(=O)CN2C(=O)N/C(=C/c3cc(C)n(-c4ccc5c(c4)OCO5)c3C)C2=O)c1,14.8
11,CC(C)C1C(c2ccccc2)NC(c2ccccc2)CC1(C)O (stereo not drawn),-0.996
12,CC(C)COc1ccc(C(CC(=O)O)C(=O)O)cc1 (stereo not drawn),0.0069
13,CCCCN(CCC(=O)O)CP(C)(=O)O,-1.59
14,OCC/N=c1\cc(-c2ccccc2)oc2ccc(Cl)cc12,0.561
15,O=C(Cc1ccc(-c2ccccc2)cc1)Nc1cc(Cl)ccc1Cl,-0.636
16,O=C1NC(=O)C(C2CCCCC2)C(=O)N1,2.58
17,Oc1ccc(Cl)cc1-c1csnn1,1.81
18,COc1ccccc1-c1cc(C(=O)N2CCOCC2)no1,4.5
19,COc1cc(CNc2cccc(Cl)c2)ccc1OCC(=O)NC(C)(C)C,2.01
20,CSCCC(NC(=O)C1CCC(C)CC1)C(=O)NC1CCN(Cc2ccccc2)CC1 (stereo not drawn),-4.86
21,O=C(Nc1ccc2c(c1)Nc1ccccc1CC2)c1ccccc1,-0.591
22,CCOc1ccc2[nH]c(SCCc3ccccc3)nc2c1,-5.15
23,CN1C(C(=O)NCC23CC4CC(CC(C4)C2)C3)=CC(c2ccco2)=NS1(=O)=O,-2.84
24,O=C(CSc1nc[nH]n1)c1ccccc1,1.63
25,COc1ccc(CN2CCN(c3cccc(C(F)(F)F)c3)CC2)cc1Br,1.27
26,O=C1CC(NCCc2ccc(Cl)cc2Cl)C(=O)N1c1ccccc1 (stereo not drawn),-4.15

row,Structure (SMILES),% Inhibition @ 10 uM [%]
1,OC(CCCN1CCC(O)(c2ccc(Cl)cc2)CC1)c1ccc(F)cc1 (stereo not drawn),-0.95
2,CC(=O)c1cc(-c2ccc(F)cc2)n(CCC(=O)NC(C)(C)C)c1C,-1.88
3,Cc1ncc2[nH]c3ccccc3c2c1C(=O)O,-5.44
4,O=C(Nc1cccnc1)c1ccc(COc2cc(Cl)ccc2Cl)o1,3.72
5,Cc1cc(Cl)ccc1OCC(=O)N[C@@H](C)c1ccccc1,2.13
6,COc1ccc2c(c1)c(=O)oc1c(C)c(OC(C)C(=O)O)ccc12 (stereo not drawn),-3.41
7,Cc1ccc(S(=O)(=O)N2CCCC(C(=O)Nc3nc4c(s3)C(=O)CC(C)(C)C4)C2)cc1 (stereo not drawn),2.29
8,Cc1cc(-c2ccc(C(=O)N[C@@H](CC(C)C)C(=O)NCC#N)cc2)ccc1F,-8.26
9,CCN(CC)c1ccc(/C=C2\N=C(SC)SC2=O)cc1,-4.41
10,O=C(O)c1cc2nc(-c3cccs3)cc(C(F)(F)F)n2n1,0.215
11,N#CC1=C(N)Oc2c(c(O)nc3ccccc23)C1c1ccc(-c2ccccc2)cc1 (stereo not drawn),7.37
12,O=C(NCc1ccccc1Cl)C1CCCN(S(=O)(=O)N2CCCCC2)C1 (stereo not drawn),-8.85
13,Cc1cc(C(F)(F)F)n2nc(C(=O)O)cc2n1,-1.2
14,COc1ccccc1N(CC(=O)NC(C)C)S(=O)(=O)c1ccccc1,5.07
15,COc1ccc(OCCCN2CCCC2)cc1,2.41
16,COc1ccc(C(=O)Nc2ccccc2C(=O)NCc2ccc(Cl)cc2)cc1,-3.65
17,N#C[C@H](Cc1ccc(O)cc1)NC(=O)[C@H](CC1CCCCC1)NC(=O)OCc1ccccc1,-1.41
18,Cc1ccccc1-c1nc(Cn2c(=O)cc(-c3ccccc3)c3c(C)nn(C)c32)c(C)o1,1.47
19,CCOc1nc(C)ccc1-c1noc(-c2cccc(OC)c2)n1,-1.33
20,O=[N+]([O-])c1ccc(S(=O)(=O)N2CCN(c3ccc(F)cc3)CC2)cc1,2.22
21,O=C(O)c1ccc2c(c1)C(=O)N(c1ccccn1)C2=O,1.64
22,Cc1cc(C)c(-c2c(O)nc3c(c2O)C(=O)CC(C)(C)C3)c(C)c1,-1.06
23,Cc1ccc(S(=O)(=O)NCC23CC4CC(CC(C4)C2)C3)cc1,-0.712
24,CCOC(=O)c1cnc(SCC(=O)Nc2sc(-c3ccccc3)cc2C(=O)OCC)nc1N,11.6
25,O=C(Nc1ccccc1)Nc1ccc(F)cc1,-5.57
26,CC1=C(C(=O)OCCc2ccccc2)C(c2ccc(C)s2)NC(=O)N1 (stereo not drawn),2.94

row,Structure (SMILES),% Inhibition @ 10 uM [%]
1,CC(C)Cn1c(=O)c2cc3c(=O)n(CC(C)C)c(=O)c3c(C(=O)c3ccc(Cl)cc3)c2c1=O,-3.41
2,COc1ccc(/C=C/C(=O)c2c(O)cc(C)oc2=O)cc1,-4.01
3,COC1C(O)C2CC1C1C(=O)N(c3ccccc3O)C(=O)C21 (stereo not drawn),-2.78
4,O=C(O)C1CC=CCC1C(=O)Nc1nc2ccc(Cl)cc2s1 (stereo not drawn),1.39
5,CCCCOC(=O)c1nc2ncc([N+](=O)[O-])cn2n1,0.215
6,O=C1C2(c3ccccc3)CN3CC1(c1ccccc1)CN(C2)C3c1ccco1 (stereo not drawn),0.248
7,Cc1ccc(-n2nc(C)c3c(C(=O)NCCc4ccco4)cc(C)nc32)cc1,-1.3
8,CCOc1ccc(CCNC(=O)c2[nH]c(C)c(C(C)=O)c2CC)cc1OCC,-4.96
9,COC(=O)c1cc(-c2ccc(Cl)cc2)nc2ccc(Br)cc12,3.85
10,COc1ccc(C(=O)CCN2CCCC(C)C2)cc1 (stereo not drawn),1.19
11,COc1cccc(-c2nc(CS(=O)(=O)CC(=O)NCCCSC3CCCCC3)c(C)o2)c1,-0.138
12,CN1CCN(C(=O)CNS(=O)(=O)c2ccccc2)CC1,-6.62
13,C=CCN1C(=O)S/C(=C/c2cccn2-c2cccc(C(=O)O)c2)C1=O,0.83
14,Cc1cc(C)n(-c2ccccc2)c(=O)n1,0.0345
15,C/N=C1/S/C(=C/c2ccc(-c3cccc(Cl)c3C)o2)C(=O)N1C,-4.24
16,Nc1nc(-c2ccc(Cl)cc2)nn1S(=O)(=O)c1ccc(Cl)cc1,4.22
17,N#CCNC(=O)[C@@H](Cc1ccc(F)cc1)NC(=O)OCc1ccccc1,-10.2
18,O=C(NCc1cccnc1)c1cccc2c1C(=O)N(Cc1cccnc1)C2,-4.14
19,Cc1onc(-c2ccccc2)c1C(=O)Nc1ccccc1NC(=O)c1c(-c2ccccc2)noc1C,-2.94
20,c1cncc(-c2nnc(-c3cccnc3)nn2)c1,-1.11
21,Cc1cc(N2CCOCC2)n2nc(C)c(-c3ccc(Cl)cc3)c2n1,-0.256
22,O=C(NCc1ccccc1Cl)c1oc(=O)c2ccccc2c1-c1ccccc1,3.53
23,Cn1cc([N+](=O)[O-])c(C(=O)NC2CCCCC2)n1,-1.8
24,O=C(O)CC1Sc2ccccc2NC1=O (stereo not drawn),-3.77
25,Cc1ccc(S(=O)(=O)N2CCN(c3cccc(Cl)c3)CC2)cc1,2.4
26,COc1ccc(C2c3sc(O)nc3SC3C4CC(C5C(=O)N(C(C)C(=O)O)C(=O)C45)C23)cc1 (stereo not drawn),-3.52

row,Structure (SMILES),% Inhibition @ 10 uM [%]
1,Cc1cc(Cl)ccc1OC(C)C(=O)Nc1cc(Cl)ccc1C(=O)O (stereo not drawn),-5.3
2,CCN(CC)CC(=O)Nc1cc(N(C)C)nc2ccccc12,3.44
3,CC1(C)CC(=O)C2=C(C1)OC(N)=C(C#N)C21C(=O)N(CO)c2ccccc21 (stereo not drawn),-4.03
4,Cc1ccc(CNC(=O)C(C)n2sc3ccccc3c2=O)cc1 (stereo not drawn),-0.856
5,O=C1CSC(c2ccccc2)N1c1ccc([N+](=O)[O-])cc1 (stereo not drawn),4.68
6,CCOC(=O)c1ccc(Nc2ncnc3[nH]cnc23)cc1,6.83
7,CS(=O)(=O)c1nc(S(=O)(=O)c2ccc(Cl)cc2)c(NCCCc2ccccc2)s1,-2.25
8,COc1cccc(OC)c1C(=O)Nc1ccc2ccccc2c1,1.08
9,CNCc1ccccc1Sc1ccc(O)cc1,-1.91
10,CCOc1ccccc1N(CC(=O)NCc1ccccc1Cl)S(C)(=O)=O,-3.42
11,Cc1ccc(NC(=O)c2cccc(Cl)c2)c(C)c1,-0.482
12,CC1(C)CC2=NC3=C(C(=O)CC(C)(C)C3)C(c3ccccc3Cl)C2=C(O)C1 (stereo not drawn),-2.54
13,CC(=O)Nc1ccc(CN2CCN(c3ccc([N+](=O)[O-])cc3)CC2)cc1,5.42
14,CCOC(=O)C1CCN(S(=O)(=O)c2c(C)cc(C)cc2C)CC1,-4.4
15,CCn1cnc2c(=O)oc3ccccc3c21,-1.14
16,CC(C)(OC(=O)c1ccccc1)C1Cc2cc3ccc(=O)oc3cc2O1 (stereo not drawn),0.467
17,CC1(C)CCC(=O)N(c2ccccc2)C1=O,-4.49
18,CCN(CC)CCCOc1ccccc1F,-8.37
19,O=C(CCCn1sc2ccccc2c1=O)NCCCN1CCOCC1,-3.07
20,CC(=O)c1c(O)nc(C)c2c1CCCC2,0.135
21,Cc1cc(C(F)(F)F)nc2sc(C(=O)c3ccc4c(c3)OCO4)c(N)c12,10.9
22,COc1ccc(N2C(=O)C3C(C2=O)C2C=CC3C23CC3)cc1 (stereo not drawn),2.38
23,CCOC(=O)N1CCN(C(=O)C2c3ccccc3C(=O)N(C)C2c2ccc(OC)cc2)CC1 (stereo not drawn),-0.363
24,COC(=O)c1cc(S(=O)(=O)N2CCN(C(c3ccc(F)cc3)c3ccc(F)cc3)CC2)cn1C,1.44
